Values quoted from earlier work, collected in EP1134585B1, “Biosensor and method for the monitoring of herbicides” (CONSIGLIO NAZIONALE DELLE RICERCHE, priority 2000, dated 2001).

Columns and labels:
D1 protein Ser264->Gly [1] = conditions: Amarenthus hybridus; cited from earlier work
D1 protein Set264->Gly = conditions: Brassica camptestrsl; cited from earlier work
D1 protein Ser264->Thr [2] = conditions: Euglena, code MSI; cited from earlier work
D1 protein Ser264->Thr [3] = conditions: Nicotiana tabacum (cell culture); cited from earlier work
[4] = test system: D1 protein Val219->Ile A1a251->Val Asn266->Thr; conditions: code L2; cited from earlier work
[5] = test system: D1 protein Val219->Ile Thr220->Ala Ser270->Phe; conditions: code L3; cited from earlier work
D1 protein Ser264->Ala [6] = target: D1 protein Ser264->Ala (Synechococcus elongatus, UniProt P04996, S264A); conditions: Synechococcus sp. PCC7942, code Dil; cited from earlier work
[7] = test system: D1 protein Val219->Ile Thr220->Ala Ser270->Tyr; conditions: code L5; cited from earlier work
[8] = test system: D1 protein Val219->Ile A1a251->Thr; conditions: codes LA, L6 L7; cited from earlier work
[9] = test system: D1 protein Val219->lIe la251->Val; conditions: codes LI, L8; cited from earlier work
D1 protein Asn266->Thr = target: T1, D1 protein Asn266->Thr (Synechocystis sp., UniProt P14660, N266T); conditions: code loxl; cited from earlier work
T1 construct: host or cells: mutant Synechocystis PCC6714

[10] = test system: D1 protein Ser265(264)->Ala; conditions: Euglena, code ZR; cited from earlier work
D1 protein Ser264->Gly [11] = conditions: Amaranthus bouchoniil; cited from earlier work
[12] = target: T2, D1 protein Phe211->Ser Ala251->Val (Synechocystis sp., UniProt P14660, A251V/F211S); conditions: code AzV; cited from earlier work
T2 construct: host or cells: mutant Synechocystis PCC6714

D1 protein Ala251-Val = conditions: Synechocystis PCC6714, code M35; cited from earlier work
D1 protein Ser264->Ala [13] = conditions: Synechocistis sp. PCC6714, code DCMU IIA; cited from earlier work
D1 protein Ile248->Thr = conditions: code M30; cited from earlier work
D1 protein Arg263->Gly = conditions: cited from earlier work
D1 protein Ser264→Gly = conditions: cited from earlier work

SMILES: CCNc1nc(NC(C)C)nc(SC)n1 [Ametryn]
- R/S Resistance (D1 protein Ser264->Gly [1]): Ametryn 500
- R/S Resistance (D1 protein Set264->Gly): Ametryn 600

SMILES: CCNc1nc(NC(C)C)nc(OC)n1 [Atraton]
- R/S Resistance (D1 protein Ser264->Gly [1]): Atraton 100
- R/S Resistance (D1 protein Set264->Gly): Atraton 800

SMILES: CC(C)N1C(=O)c2ccccc2NS1(=O)=O [Bentazon]
- Supersensitivity R/S (D1 protein Ser264->Gly [1]): Bentazon 0,2

SMILES: CNC(=O)Nc1nc2ccccc2s1 [Benzthiazuron]
- R/S Resistance (D1 protein Ser264->Thr [2]): Berrzthiazuron 20

SMILES: CCC(C)n1c(=O)[nH]c(C)c(Br)c1=O (stereo not shown) [Bromacil]
- R/S Resistance (D1 protein Ser264->Thr [3]): Bromacil 64
- R/S Resistance [4]: Bromacil 120
- R/S Resistance [5]: Bromacil 5
- R/S Resistance (D1 protein Ser264->Gly [1]): Bromacil 20
- R/S Resistance (D1 protein Ser264->Ala [6]): Bromacil 33
- R/S Resistance [7]: Bromacil 2
- R/S Resistance (D1 protein Set264->Gly): Bromacil 40
- R/S Resistance [8]: Bromacil 2-25
- R/S Resistance [9]: Bromacil 15-20

SMILES: N#Cc1cc(Br)c(O)c(Br)c1 [Bromoxynil]
- R/S Resistance (D1 protein Asn266->Thr): Bromoxynil 15

SMILES: CN(C)C(=O)Nc1ccc(Oc2ccc(Cl)cc2)cc1 [Chloroxuron]
- R/S Resistance [10]: Chloroxuron 480
- R/S Resistance (D1 protein Ser264->Gly [1]): Chloroxuron 3

SMILES: CCC(C)c1cc([N+](=O)[O-])cc([N+](=O)[O-])c1O (stereo not shown) [Dinoseb]
- R/S Resistance [4]: Dinoseb 10
- R/S Resistance [5]: Dinoseb 1,1
- R/S Resistance [8]: Dinoseb 4-8

SMILES: CN(C)C(=O)Nc1ccccc1 [Fenuron]
- R/S Resistance (D1 protein Ser264->Gly [1]): Fenuron 1,1-1,4
- R/S Resistance (D1 protein Ser264->Gly [11]): Fenuron 13,5

SMILES: O=c1[nH]c2c(c(=O)n1C1CCCCC1)CCC2 [Lenacil]
- R/S Resistance (D1 protein Ser264->Gly [1]): Lenadi 1880-2040
- R/S Resistance (D1 protein Ser264->Gly [11]): Lanacil 4,4

SMILES: CSc1nnc(C(C)(C)C)c(=O)n1N [Metribuzin]
- R/S Resistance (D1 protein Ser264->Thr [3]): Metribuzin 290
- R/S Resistance [4]: Metribuzin 251
- R/S Resistance [12]: Metnbuzin 4000
- R/S Resistance [5]: Metribuzin 25
- R/S Resistance (D1 protein Ser264->Ala [6]): Metribuzin 5000
- R/S Resistance [7]: Metribuzin 25
- R/S Resistance (D1 protein Ala251-Val): Metribuzin 200
- R/S Resistance (D1 protein Ser264->Ala [13]): Metribuzin >3000
- R/S Resistance (D1 protein Ile248->Thr): Metribuzin 28
- R/S Resistance [8]: Metribuzin 6-794
- R/S Resistance (D1 protein Ser264->Thr [2]): Metribuzin 63

SMILES: CCCCN(C)C(=O)Nc1ccc(Cl)c(Cl)c1 [Neburon]
- R/S Resistance [10]: Neburon 2,3

SMILES: CCC(=O)Nc1ccc(Cl)c(Cl)c1 [Propanil]
- R/S Resistance [4]: Propanil 2
- R/S Resistance [5]: Propanil 2
- R/S Resistance [7]: Propanil 13
- R/S Resistance [8]: Propanil 2-71
- R/S Resistance [9]: Propanil 14-15

SMILES: CC1CCCCC1NC(=O)Nc1ccccc1 (stereo not shown) [Siduron]
- R/S Resistance [10]: Siduron 2,5

SMILES: CCNc1nc(NC(C)(C)C)nc(SC)n1 [Terbutryn]
- R/S Resistance (D1 protein Arg263->Gly): Terbutryn 8

SMILES: CC(C)Cc1cc([N+](=O)[O-])cc([N+](=O)[O-])c1O [i-Dinoseb]
- Supersensitivity R/S (D1 protein Ser264→Gly): i-Dinoseb 0,5

SMILES: c1cnc2c(c1)ccc1cccnc12 [o-Phenanthroline]
- R/S Resistance [10]: o-Phenathroline 5

Read-outs that look alike come from different tables or passages of the source.
